# Experimental data published in PubChem BioAssay AID1745853 (National Center for Advancing Translational Sciences (NCATS), 2022).
# Several values for one entry are separate records, joined by “and”; a condition that tells them apart may be missing. Identical values can stand only once. The list shows a part of the results. These are further read-outs of the screen, such as a control signal, another cell line or another target. No call is given for them.
# Tests used:
# Assay in all cases: Primary Screen for Target Class Profiling of Small Molecule Inhibitors of Methyltransferases
# [1] = target: Glycine N-methyltransferase (Homo sapiens) (UniProt Q14749); conditions: purified enzyme, MTase-Glo SAH luminescence; measured here: GNMT inhibition; at 40 µM; stronger effect = lower value
# How it was run: (§1)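 Each enzyme was assayed with SAM and its substrate. SAH formation detected by MTase-Glo luminescence; single-point 40 uM screen[…].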
# [2] = target: Guanidinoacetate N-methyltransferase (Homo sapiens) (UniProt Q14353); conditions: purified enzyme, MTase-Glo SAH luminescence; measured here: GAMT inhibition; at 40 µM; stronger effect = lower value
# How it was run: as §1
# [3] = target: Histamine N-methyltransferase (Homo sapiens) (UniProt P50135); conditions: purified enzyme, MTase-Glo SAH luminescence; measured here: HNMT inhibition; at 40 µM; stronger effect = lower value
# How it was run: as §1
# [4] = target: Nicotinamide N-methyltransferase (Homo sapiens) (UniProt P40261); conditions: purified enzyme, MTase-Glo SAH luminescence; measured here: NNMT inhibition; at 40 µM; stronger effect = lower value
# How it was run: as §1
# [5] = target: Phenylethanolamine N-methyltransferase (Homo sapiens) (UniProt P11086); conditions: purified enzyme, MTase-Glo SAH luminescence; measured here: PNMT inhibition; at 40 µM; stronger effect = lower value
# How it was run: as §1
# % is set by controls: 0 for no effect and ±100 for the full control effect.
SMILES,"activity change, negative = inhibition [1]","activity change, negative = inhibition [2]","activity change, negative = inhibition [3]","activity change, negative = inhibition [4]","activity change, negative = inhibition [5]"
O=C(Nc1cccc(Cl)c1)N1Cc2c(sc3c2CCCC3)-n2cccc2C1c1ccccc1 (configuration not stated),-0.43%,0%,-3.43%,-6.87%,4.05%
CCOc1ccccc1CN1C(=O)c2cc(-c3cccs3)nn2CC1(C)C(=O)NC1CCCCC1 (configuration not stated),6.09%,1.12%,9.33%,8.59%,5.33%
CCCn1c(=O)c2cc(Cl)ccc2n2c(SCC(=O)NC(C)C)nnc12,-6.46%,1.72%,1.33%,-5.86%,-3.28%
O=C(NCc1ccco1)C1CCc2nc(N3CCN(C(=O)C4CCC4)CC3)sc2C1 (configuration not stated),-6.58%,-3.58%,-2.99%,-0.728%,1.77%
O=C(CCc1nc2ccc(Cl)cc2[nH]1)N1CCc2c(nc3cc(-c4ccccc4)[nH]n3c2=O)C1,-12.8%,-0.808%,-3.54%,0.231%,-5.4%
COc1ccc(OC)c(S(=O)(=O)N2CCC3(CC2)CC(CC(=O)N(C)C)CCO3)c1 (configuration not stated),5.77%,1.15%,15.6%,5.21%,10.3%
CN(C)CCN1C(=O)c2cc3sccc3n2CC1(C)C(=O)NC1CCCCCCC1 (configuration not stated),-4.56%,0%,-12.8%,-10.4%,-1.92%
COc1ccc(CNC(=O)Cn2ccc3cc(S(=O)(=O)N4CCCCC4)ccc32)cc1OC,-15.3%,-0.333%,-6.54%,-16%,-3.91%
O=S(=O)(Nc1ccccn1)c1ccc(N=Cc2c(O)[nH]c3ccc4ncsc4c23)cc1,-7.93%,7.19%,12.4%,-9.97%,6.05%
Cc1nc(N2CCC(C(=O)NC3CCC(C)CC3)CC2)cc(C(F)(F)F)n1 (configuration not stated),1.28%,-0.997%,1.05%,1.52%,-1.9%
CC(=O)OC[C@]12[C@H](OC(C)=O)C(=O)[C@@H]3[C@@H](O)[C@@]14O[C@@]3(C)COC(=O)c1cccnc1[C@@H](C)[C@H](C)C(=O)O[C@@H]([C@H](O)[C@@H]2OC(C)=O)[C@]4(C)O,-2.97%,-7.39%,3.94%,-16.2%,-8.47%
O=C(CCn1ccc2cc(S(=O)(=O)N3CCCCC3)ccc21)NCCCN1CCCC1=O,0.187%,5.63%,0.97%,-0.98%,2.71%
Cc1cc(OCCCS(C)(=O)=O)cc(C)c1-c1cccc(COc2ccc3c(c2)OCC3CC(=O)O)c1 (configuration not stated),-30.5%,,-1.16%,,
O=C1CCN(Cc2c[nH]c3ccccc23)CCCC(C(=O)NCc2ccccc2)CCN1 (configuration not stated),-10.5%,-8.7%,-8.27%,-13.9%,-4.92%
N#Cc1cccc(C(=O)NCc2nnc3ccc(-c4ccc(F)cc4)nn23)c1,-5.85%,-1.76%,-0.815%,-3.8%,-4.81%
CCC(=O)N1CCOc2c(cc(-c3ccc(OC)c(OC)c3)cc2OC[C@H]2CCCN(C)C2)C1,-0.701%,-1.06%,-52.4%,-17.1%,-7.02%
CC1(C)CC[C@]2(C(=O)O)CC[C@]3(C)C(=CCC4[C@@]5(C)C[C@H](O)[C@H](O[C@@H]6O[C@H](CO)[C@@H](O)[C@H](O)[C@H]6O)[C@@](C)(CO)C5[C@H](O)C[C@]43C)[C@@H]2C1 (some centres not stated),1.14%,-1.28%,10.8%,-12.7%,-6.95%
CC(C)NC(=O)CSc1nnc2n(Cc3ccccc3)c(=O)c3ccc(C(=O)NC(C)C)cc3n12,4.19%,0%,8.51%,7.37%,4.85%
CSCC1OC(n2cnc3c(=O)[nH]cnc32)C(O)C1O (configuration not stated),-0.023%,0.002%,3.42%,-11.7%,3.74%
CC(C)(C)CC(=O)N1CCC2(CC1)N(c1ccccc1)C(=O)CS2(=O)=O,-5.65%,-9.56%,-2.13%,-2.86%,-3.49%
CC(C)CCCC1CN(C(=O)c2c(O)cccc2O)CCO1 (configuration not stated),-5.62%,-7.96%,-2.31%,-13.2%,-9.74%
CCC(C)NC(=O)c1ccc2c(=O)n(C(C)C)c3nn(CC(=O)Nc4ccc(F)cc4)c(=O)n3c2c1 (configuration not stated),1.79%,0%,3.25%,0.756%,1.19%
Cc1ccccc1NC(=O)N1Cc2c(sc3c2CCCC3)-n2cccc2C1c1cccc(F)c1 (configuration not stated),3.53%,0%,8.06%,3.94%,10%
Cc1ccc(S(=O)(=O)c2nnn3c2nc(NC(C)C)c2cc(Cl)ccc23)cc1C,-1.81%,0%,6.83%,4.42%,-2.67%
O=C(NCC1CCOCC1)Nc1c(F)cccc1F,0.495%,1.02%,2.45%,-4.83%,14.8%
COc1ccccc1CCNC(=O)c1cc2n(n1)CC(C)(C(=O)NCc1ccc(F)cc1)N(C)C2=O (configuration not stated),6.86%,1.04%,-0.909%,8.56%,6.86%
C=Cc1ccc(Cn2nc3n(CCC(C)C)c(=O)c4ccc(C(=O)NC(C)C)cc4n3c2=O)cc1,-8.81%,-7.53%,1.53%,-16.4%,-3.47%
Cn1ccc(C(=O)N2CC3ON=C(C(=O)NCCc4ccc(Cl)cc4)C3C2)n1 (configuration not stated),-3.33%,-6.74%,-0.76%,-6.82%,-4.86%
Nc1ccccc1NC(=O)c1ccc(CNC(=O)OCc2cccnc2)cc1,6.69% and -23.1%,7.39%,10.1% and -8.58%,-8.84% and -13.8%,3.79% and 19.8%
Cn1cc(-c2cc(=O)c3ccnc(NC4CCOCC4)c3o2)cn1,-4.58%,-7.03%,-2.79%,-17.9%,-5.65%
